# In PMC12820563:
# This is one part of the list. The list includes weakly bound sequences.
# Molecular target: T1, MBP-FoxP3dN (UniProt Q99JB6)
# T1 sequence: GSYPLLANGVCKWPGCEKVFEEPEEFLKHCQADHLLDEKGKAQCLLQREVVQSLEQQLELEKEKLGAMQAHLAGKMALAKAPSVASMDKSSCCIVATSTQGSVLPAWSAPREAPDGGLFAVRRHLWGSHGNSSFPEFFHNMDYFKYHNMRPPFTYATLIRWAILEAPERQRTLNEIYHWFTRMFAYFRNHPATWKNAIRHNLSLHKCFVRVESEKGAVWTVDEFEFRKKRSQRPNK
# Assay: PD-seq (MBP pull-down with sequencing)
# Details: 20 mM Tris-HCl pH 7.5, 100 mM NaCl, 1.5 mM MgCl2, 0.4 uM protein, 0.1 uM dsDNA library, 30 min, room temperature, amylose pull-down; high values mean tight binding; double strand, one strand shown
row,Sequence,binding signal (RPM ratio (pull-down/input))
1,GATGATTGTTCTCCCAGCTGATGAATTATTAAATTCGAGTAAACAAATTTTCCTAATCTTTCTGTTCAAGCGCCATCTAC,0.323
2,GATGATTGTTCTCCCAGCTGATGAATTTCGACAATCGAGTAAACAAATTTTCCTAATCTTTCTGTTCAAGCGCCATCTAC,0.506
3,GATGATTGTTCTCCCAGCTGATGAATTAAGGACTTCGAGTAAACAAATTTTCCTAATCTTTCTGTTCAAGCGCCATCTAC,0.412
4,GATGATTGTTCTCCCAGCTGATGAATTGCCCGCTTCGAGTAAACAAATTTTCCTAATCTTTCTGTTCAAGCGCCATCTAC,0.528
5,GATGATTGTTCTCCCAGCTGATGAATTCTTGCTATCGAGTAAACAAATTTTCCTAATCTTTCTGTTCAAGCGCCATCTAC,0.663
6,GATGATTGTTCTCCCAGCTGATGAATTGGTGTCTTCGAGTAAACAAATTTTCCTAATCTTTCTGTTCAAGCGCCATCTAC,1.2
7,GATGATTGTTCTCCCAGCTGATGAATTTACATTATCGAGTAAACAAATTTTCCTAATCTTTCTGTTCAAGCGCCATCTAC,0.87
8,GATGATTGTTCTCCCAGCTGATGAATTGCACCGCTCGAGTAAACAAATTTTCCTAATCTTTCTGTTCAAGCGCCATCTAC,0.729
9,GATGATTGTTCTCCCAGCTGATGAATTGGTCGGCTCGAGTAAACAAATTTTCCTAATCTTTCTGTTCAAGCGCCATCTAC,0.281
10,GATGATTGTTCTCCCAGCTGATGAATTCCAGCCATCGAGTAAACAAATTTTCCTAATCTTTCTGTTCAAGCGCCATCTAC,0.921
11,GATGATTGTTCTCCCAGCTGATGAATTATCGGCCTCGAGTAAACAAATTTTCCTAATCTTTCTGTTCAAGCGCCATCTAC,0.423
12,GATGATTGTTCTCCCAGCTGATGAATTGGAGGCCTCGAGTAAACAAATTTTCCTAATCTTTCTGTTCAAGCGCCATCTAC,0.681
13,GATGATTGTTCTCCCAGCTGATGAATTACCTATTTCGAGTAAACAAATTTTCCTAATCTTTCTGTTCAAGCGCCATCTAC,0.405
14,GATGATTGTTCTCCCAGCTGATGAATTTCGAAAATCGAGTAAACAAATTTTCCTAATCTTTCTGTTCAAGCGCCATCTAC,0.155
15,GATGATTGTTCTCCCAGCTGATGAATTTGGTAGCTCGAGTAAACAAATTTTCCTAATCTTTCTGTTCAAGCGCCATCTAC,1.1
16,GATGATTGTTCTCCCAGCTGATGAATTCGTTGCTTCGAGTAAACAAATTTTCCTAATCTTTCTGTTCAAGCGCCATCTAC,2.09
17,GATGATTGTTCTCCCAGCTGATGAATTGTACGCATCGAGTAAACAAATTTTCCTAATCTTTCTGTTCAAGCGCCATCTAC,1.14
18,GATGATTGTTCTCCCAGCTGATGAATTCGACCATTCGAGTAAACAAATTTTCCTAATCTTTCTGTTCAAGCGCCATCTAC,0.428
19,GATGATTGTTCTCCCAGCTGATGAATTGAGTTTGTCGAGTAAACAAATTTTCCTAATCTTTCTGTTCAAGCGCCATCTAC,3.48
20,GATGATTGTTCTCCCAGCTGATGAATTATATAAGTCGAGTAAACAAATTTTCCTAATCTTTCTGTTCAAGCGCCATCTAC,0.369

row,Sequence,binding signal (RPM ratio (pull-down/input))
1,GATGATTGTTCTCCCAGCTGATGAATTATCTATCTCGAGTAAACAAATTTTCCTAATCTTTCTGTTCAAGCGCCATCTAC,0.385
2,GATGATTGTTCTCCCAGCTGATGAATTTAAGAGCTCGAGTAAACAAATTTTCCTAATCTTTCTGTTCAAGCGCCATCTAC,0.197
3,GATGATTGTTCTCCCAGCTGATGAATTGAGCATGTCGAGTAAACAAATTTTCCTAATCTTTCTGTTCAAGCGCCATCTAC,4.46
4,GATGATTGTTCTCCCAGCTGATGAATTGGAATTGTCGAGTAAACAAATTTTCCTAATCTTTCTGTTCAAGCGCCATCTAC,0.647
5,GATGATTGTTCTCCCAGCTGATGAATTGTTAGAATCGAGTAAACAAATTTTCCTAATCTTTCTGTTCAAGCGCCATCTAC,0.409
6,GATGATTGTTCTCCCAGCTGATGAATTCGCAGAGTCGAGTAAACAAATTTTCCTAATCTTTCTGTTCAAGCGCCATCTAC,0.25
7,GATGATTGTTCTCCCAGCTGATGAATTGTGTACTTCGAGTAAACAAATTTTCCTAATCTTTCTGTTCAAGCGCCATCTAC,3.76
8,GATGATTGTTCTCCCAGCTGATGAATTTAGGCATTCGAGTAAACAAATTTTCCTAATCTTTCTGTTCAAGCGCCATCTAC,5.38
9,GATGATTGTTCTCCCAGCTGATGAATTGATGAAGTCGAGTAAACAAATTTTCCTAATCTTTCTGTTCAAGCGCCATCTAC,0.277
10,GATGATTGTTCTCCCAGCTGATGAATTCCGTCATTCGAGTAAACAAATTTTCCTAATCTTTCTGTTCAAGCGCCATCTAC,1.64
11,GATGATTGTTCTCCCAGCTGATGAATTACCCTTGTCGAGTAAACAAATTTTCCTAATCTTTCTGTTCAAGCGCCATCTAC,0.319
12,GATGATTGTTCTCCCAGCTGATGAATTGGGTGCGTCGAGTAAACAAATTTTCCTAATCTTTCTGTTCAAGCGCCATCTAC,0.81
13,GATGATTGTTCTCCCAGCTGATGAATTTCGTCTCTCGAGTAAACAAATTTTCCTAATCTTTCTGTTCAAGCGCCATCTAC,1.02
14,GATGATTGTTCTCCCAGCTGATGAATTCAGGACCTCGAGTAAACAAATTTTCCTAATCTTTCTGTTCAAGCGCCATCTAC,0.26
15,GATGATTGTTCTCCCAGCTGATGAATTTATACAATCGAGTAAACAAATTTTCCTAATCTTTCTGTTCAAGCGCCATCTAC,1.15
16,GATGATTGTTCTCCCAGCTGATGAATTCGAAAGGTCGAGTAAACAAATTTTCCTAATCTTTCTGTTCAAGCGCCATCTAC,0.219
17,GATGATTGTTCTCCCAGCTGATGAATTAATGGATTCGAGTAAACAAATTTTCCTAATCTTTCTGTTCAAGCGCCATCTAC,0.351
18,GATGATTGTTCTCCCAGCTGATGAATTCTACTGATCGAGTAAACAAATTTTCCTAATCTTTCTGTTCAAGCGCCATCTAC,0.389
19,GATGATTGTTCTCCCAGCTGATGAATTATGCCTTTCGAGTAAACAAATTTTCCTAATCTTTCTGTTCAAGCGCCATCTAC,5.34
20,GATGATTGTTCTCCCAGCTGATGAATTTCTGTCTTCGAGTAAACAAATTTTCCTAATCTTTCTGTTCAAGCGCCATCTAC,0.368
